Test results from PubChem BioAssay AID485364 (National Center for Advancing Translational Sciences (NCATS), 2010).
Among all 360,000 compounds or so, about 11,000 (3.1%) were called active. The shares of active, inactive and inconclusive entries below differ from those in the screen. Calls come from the whole dose curve; as a rule, active = well fitted inhibition curve with a large enough effect; inconclusive = small, poorly fitted or top-dose-only effect; inactive = no such curve, though single readings can be large or run the other way. No potency is given beside an inconclusive call; the fits are too rough.

These compounds were tested against Schistosoma mansoni thioredoxin glutathione reductase (TGR) (UniProt Q962Y6) (assay: qHTS Assay for the Inhibitors of Schistosoma Mansoni Peroxiredoxins). Details: purified TGR, DTNB reduction, TNB absorbance 405 nm; activity change, negative = inhibition: at 114 µM (top of the series) unless noted.
In short: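 First, TGR (20 nM dispensed) and NADPH were mixed with compound. Second, a 15 min room-temperature incubation followed. Third, further NADPH and then DTNB were added to start the reaction. Finally, TNB absorbance was monitored kinetically.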
% is set by controls: 0 for no effect and ±100 for the full control effect; potency is the fitted concentration of half-maximal effect; tags give direction and shape of the fitted curve.
Note: nearly all actives have a fitted effect of over 60% in size.

Row | Structure (SMILES) | Potency | activity change, negative = inhibition
1 | COc1ccccc1CN(C(=O)CCl)C(C(=O)NC1CCCCC1)c1ccncc1 (stereo not given) | inconclusive [inhibitor, partial curve] | –
2 | C=CCN1N=C(c2ccc(Cl)s2)CSC1=O | inconclusive [inhibitor, single point] | –
3 | CCCc1[nH]nc2c1C(c1ccccc1OCC)C(C#N)=C(N)O2 (stereo not given) | inconclusive [inhibitor, single point] | –
4 | O=C(Oc1oc(-c2ccco2)nc1C=Nc1ccc(Cl)cc1)c1ccco1 | inconclusive [inhibitor, full curve, poor fit] | –
5 | O=C(C=C=Nc1ccccc1)C(=O)N=C=Cc1ccccc1 | inconclusive [inhibitor, full curve, poor fit] | –
6 | C[C@]12CC(=CO)C(=O)C[C@@H]1CC[C@@H]1[C@@H]2CC[C@@]2(C)[C@H]1CC[C@]2(C)O | inconclusive [inhibitor, partial curve] | –
7 | CNC(=O)c1c(N)sc2c1CCCCC2 | inconclusive [inhibitor, partial curve] | –
8 | Cc1ncsc1C(=O)N1N=C2/C(=C/c3ccc(N4CCOCC4)cc3)CCCC2C1c1ccc(N2CCOCC2)cc1 (stereo not given) | – | inactive: -14%
9 | CCOC(=O)C1=C(C)NC(C)=C(C(=O)OCC)C1c1ccc(C)o1 | inconclusive [inhibitor, partial curve, poor fit] | –
10 | CN(CC(=O)Nc1ccc(Cl)c(C(F)(F)F)c1)C(=O)CC1Sc2ccccc2NC1=O (stereo not given) | – | inactive: -19.2%
11 | O=C(CN1C(=O)NC2(CCCCC2)C1=O)N1CCN(S(=O)(=O)c2cccc([N+](=O)[O-])c2)CC1 | – | inactive: 1.61%
12 | CC1CC(C)CN(C(=O)c2cc3ccccc3o2)C1 (stereo not given) | – | inactive: 0.0196%
13 | CN(C)S(=O)(=O)c1ccc(N2CCCC2)c(C(=O)Nc2nc3c(ccc4ccccc43)s2)c1 | – | inactive: -1.12%
14 | CC(C)C[C@@H](CSc1ccc(Br)cc1)N1CCN(C)CCC1=O | inconclusive [inhibitor, partial curve] | –
15 | CCOCCCN(Cc1ccco1)S(=O)(=O)c1cc2c(cc1Cl)NC(=O)CO2 | active: 17.8 µM | –
16 | O=C(Nc1nnc(N2CCCCCC2)s1)Nc1cc(F)ccc1F | – | inactive: -13.6%
17 | COc1cc(CN2CCCN(C)CC2)cc([N+](=O)[O-])c1O | inconclusive [inhibitor, partial curve] | –
18 | CC1=C(Cl)C2=NS(=O)(=O)CCN2C=C1Cl | – | inactive: 0.0323%
19 | COc1ccccc1NC(=O)CSc1nnc(N)s1 | inconclusive [inhibitor, partial curve, poor fit] | –
20 | COc1ccc(S(=O)(=O)NCC(c2cccnc2)N2CCN(c3ccccc3)CC2)cc1C (stereo not given) | inconclusive [inhibitor, partial curve] | –
